Measurements taken from the supplement of paper PMC4604168 (melanoma cell lines).
Some of the results follow. Many values rest on one well or one pass, so single values are uncertain.

What was measured:
Assay in all cases: cell count relative to DMSO control; melanoma cells; higher = more viable cells
Settings in all cases: library dose: low library concentration; 72 h
[1] = tested on: MZ2-MEL
[2] = tested on: MeWo
[3] = tested on: RPMI7951
[4] = tested on: RVH-421
[5] = tested on: SkMel28
[6] = tested on: SkMel2
[7] = tested on: SkMel30
[8] = tested on: UACC62
[9] = tested on: SkMel5
[10] = tested on: UACC257
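Further: cell number obtained by counting DAPI-stained nuclei in high-throughput microscope images with image analysis software, screen run in 1,536-well plates.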

C[C@@H](Oc1cc(-c2cnn(C3CCNCC3)c2)cnc1N)c1c(Cl)ccc(F)c1Cl [Crizotinib] + CN1CCN(c2ccc3nc(-c4c(N)c5c(F)cccc5[nH]c4=O)[nH]c3c2)CC1 [Dovitinib] (first compound 0.2 µM, partner dose 0.1 µM)
cell count [1]: 96.4% | cell count [2]: 96.5% | cell count [3]: 107% | cell count [4]: 83.6% | cell count [5]: 90.9% | cell count [6]: 107% | cell count [7]: 87.6% | cell count [8]: 93.4%

CNC(=O)c1cc(Oc2ccc(NC(=O)Nc3ccc(Cl)c(C(F)(F)F)c3)cc2)ccn1 [sorafenib] + Nc1cccc2c1CN(C1CCC(=O)NC1=O)C2=O [lenalidomide] (first compound 0.4 µM, partner dose 1 µM)
cell count [1]: 104% | cell count [2]: 110% | cell count [3]: 97.6% | cell count [4]: 107% | cell count [5]: 111% | cell count [6]: 90% | cell count [7]: 118% | cell count [8]: 86.9%

CS(=O)(=O)CCNCc1ccc(-c2ccc3ncnc(Nc4ccc(OCc5cccc(F)c5)c(Cl)c4)c3c2)o1 [lapatinib] + O=c1cc(-c2cccc3c2Sc2ccccc2S3)oc(N2CCOCC2)c1 [KU55933] (first compound 0.8 µM, partner dose 1 µM)
cell count [2]: 99% | cell count [3]: 78.9% | cell count [4]: 116% | cell count [5]: 105% | cell count [6]: 87.2% | cell count [7]: 89% | cell count [9]: 85.9% | cell count [10]: 126% | cell count [8]: 88.3%

CNC(=O)c1cc(Oc2ccc(NC(=O)Nc3ccc(Cl)c(C(F)(F)F)c3)cc2)ccn1 [sorafenib] + C[C@]1(c2nc3c(C(N)=O)cccc3[nH]2)CCCN1 [Veliparib] (first compound 0.4 µM, partner dose 1.4 µM)
cell count [1]: 91.8% | cell count [2]: 97.8% | cell count [3]: 76.5% | cell count [4]: 70.1% | cell count [5]: 90.5% | cell count [6]: 95.7% | cell count [7]: 90.2% | cell count [8]: 73.6%

CNC(=O)c1cc(Oc2ccc(NC(=O)Nc3ccc(Cl)c(C(F)(F)F)c3)cc2)ccn1 [sorafenib] + C#Cc1cccc(Nc2ncnc3cc(OCCOC)c(OCCOC)cc23)c1 [erlotinib] (first compound 0.4 µM, partner dose 0.8 µM)
cell count [1]: 92.3% | cell count [2]: 85.7% | cell count [3]: 77.3% | cell count [4]: 103% | cell count [5]: 89.5% | cell count [6]: 100% | cell count [7]: 83.7% | cell count [8]: 87.5%
